{
  "source": "paper PMC13263796",
  "key": {"Atg9-PA (S. cerevisiae)": {"target": "T1, Atg9-PA (S. cerevisiae) (UniProt Q12142)", "T1 sequence": "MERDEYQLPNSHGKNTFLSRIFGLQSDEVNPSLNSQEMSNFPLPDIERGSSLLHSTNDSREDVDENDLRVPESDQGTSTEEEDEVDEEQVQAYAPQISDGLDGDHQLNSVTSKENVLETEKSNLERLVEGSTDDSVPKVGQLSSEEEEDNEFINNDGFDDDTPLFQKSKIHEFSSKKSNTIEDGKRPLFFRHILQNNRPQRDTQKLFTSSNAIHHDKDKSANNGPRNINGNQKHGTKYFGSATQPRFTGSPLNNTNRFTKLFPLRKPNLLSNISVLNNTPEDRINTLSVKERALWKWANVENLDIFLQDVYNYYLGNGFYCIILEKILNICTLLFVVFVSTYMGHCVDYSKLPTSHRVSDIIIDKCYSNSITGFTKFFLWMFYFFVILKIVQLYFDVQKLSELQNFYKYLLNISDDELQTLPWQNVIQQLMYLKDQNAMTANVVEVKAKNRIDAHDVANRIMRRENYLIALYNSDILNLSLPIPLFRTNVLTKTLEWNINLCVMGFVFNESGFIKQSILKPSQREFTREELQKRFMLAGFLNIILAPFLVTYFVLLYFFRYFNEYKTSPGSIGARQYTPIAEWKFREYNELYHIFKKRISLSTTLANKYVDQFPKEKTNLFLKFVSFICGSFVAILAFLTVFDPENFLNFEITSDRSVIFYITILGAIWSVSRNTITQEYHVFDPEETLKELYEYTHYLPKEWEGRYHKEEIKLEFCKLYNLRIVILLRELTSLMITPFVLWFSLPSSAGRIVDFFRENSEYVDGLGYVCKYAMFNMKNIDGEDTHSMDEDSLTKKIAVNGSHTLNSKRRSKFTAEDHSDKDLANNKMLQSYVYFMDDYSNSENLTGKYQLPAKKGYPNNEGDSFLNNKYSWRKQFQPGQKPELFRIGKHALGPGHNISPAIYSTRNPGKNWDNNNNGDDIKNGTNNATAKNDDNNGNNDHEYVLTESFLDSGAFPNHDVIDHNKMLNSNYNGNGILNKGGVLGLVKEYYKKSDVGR", "test": "co-IP; overexpressed GFP-Atg11 co-precipitated by overexpressed Atg9-PA from yeast in growing conditions (SMD -ura -trp, log phase); washes at 4°C; blots probed with anti-GFP"}, "BD-Atg9 (S. cerevisiae)": {"target": "T2, BD-Atg9 (S. cerevisiae) (UniProt Q12142)", "T2 sequence": "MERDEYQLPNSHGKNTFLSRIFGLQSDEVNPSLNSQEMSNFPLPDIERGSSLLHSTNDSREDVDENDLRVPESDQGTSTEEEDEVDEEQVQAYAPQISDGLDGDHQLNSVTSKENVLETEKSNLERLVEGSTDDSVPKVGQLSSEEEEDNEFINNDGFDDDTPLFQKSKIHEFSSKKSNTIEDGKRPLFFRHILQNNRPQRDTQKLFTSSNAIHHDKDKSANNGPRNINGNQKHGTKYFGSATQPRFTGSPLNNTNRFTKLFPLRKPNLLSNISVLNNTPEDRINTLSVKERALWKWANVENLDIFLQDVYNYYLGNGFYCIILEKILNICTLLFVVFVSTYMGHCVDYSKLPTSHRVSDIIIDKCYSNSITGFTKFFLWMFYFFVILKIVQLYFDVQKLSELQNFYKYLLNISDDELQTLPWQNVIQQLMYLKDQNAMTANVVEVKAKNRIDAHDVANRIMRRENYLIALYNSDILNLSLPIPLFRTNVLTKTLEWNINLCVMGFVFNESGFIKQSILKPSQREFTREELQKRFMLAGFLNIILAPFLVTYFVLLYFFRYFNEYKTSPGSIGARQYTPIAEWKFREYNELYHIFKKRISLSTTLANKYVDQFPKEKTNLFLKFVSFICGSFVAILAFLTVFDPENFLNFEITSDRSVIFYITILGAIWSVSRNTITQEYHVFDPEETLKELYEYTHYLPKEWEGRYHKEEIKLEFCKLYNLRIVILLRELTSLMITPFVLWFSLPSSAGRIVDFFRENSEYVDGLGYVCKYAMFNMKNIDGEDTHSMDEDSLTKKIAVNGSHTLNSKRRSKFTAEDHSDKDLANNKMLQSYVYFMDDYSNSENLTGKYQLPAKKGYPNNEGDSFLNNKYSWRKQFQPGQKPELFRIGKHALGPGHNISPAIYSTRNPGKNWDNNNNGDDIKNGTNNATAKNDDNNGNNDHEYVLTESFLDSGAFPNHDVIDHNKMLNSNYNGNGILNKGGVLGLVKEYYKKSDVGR", "test": "two-hybrid; BD-ATG9 with AD-ATG11 or mutants in multiple-knockout yeast YCY149 (lacking 25 ATG genes); growth on SMD -ura -leu -his with 1.5 mM 3-amino-triazol, 4-5 days at 30°C"}},
  "note": "No constants are given. Whether binding was seen depends on the method and setting. For some assays here: In cells and extracts the contact can be indirect. Some binding calls cover weakened binding; strength is not graded here. Tags and fused reporters may be left off the sequences shown.",
  "data": [
    {"binder": "GFP-Atg11 WT (protein, UniProt Q12527 1-1178) MADADEYSTAPTQQEITPLQTTATIINAISGECITTNVDFFVSLDKFKQFIARKWKIPPDQLLILLPYGNKLKPSMFKELLINRSFTLNDFYVYDRRLFSLVSKPTPTNLLTSKDSNPMNSPNSNDLTETLEYLIKNSHISQYQGSDTIMIKPMPSPLEDADVDLSRLNYHSVTSLLTTNLGWLSALEIDVHYFKSLIPDIIAHIKRIFDGLTVCSQYLKLYCFDVESLYNSNVQFLNQLVDNGMTSKWEKCFNDTLSKLTALEGDSLQKFINIESLLENEKSVKILNHSINGKLNKIKREIDENASFRDIITVNIDRLRQMFTPNESKFELEDQMAESFEVLVSEMRTRSRNVLDKEEEEFNSQEFLKSMNVMLEKDKKESVKTLFTISQALYSQIGELIDLKKSLQKHAVAILGNIAFTQMEILGIKRLLLNECNKDLELYKKYEVEFAQVEDLPLIYGLYLIEKYRRLSWFQQILSFISNFNQDLELFKQNELRTRNKWVKNFGSIATVFCEDLLSSSDFKRLNEYHSHTSPPNEDEEDENENSIANYRQDLVKVSQAIDNYMTQIKETDVSEPIIDLLSKTLFETKRFHIIYSNFKNNNNNSSNGNSISPEGSIALKSDDVVKGYKTRIKKLESLLHEFQYSDIGHWPQGVLNTHLKPFRGSATSINKKKFLGASVLLEPANISEVNIDSVSQANNHQIQELESNVDDLLHQLQLLKEENNRKSMQISEMGKKISDLEVEKTAYRETLTNLNQELARLTNEEQSHRTEIFTLNASFKKQLNDIISQDNEKIEKLTGDYDDVSKSRERLQMDLDESNKKHEQEVNLLKADIERLGKQIVTSEKSYAETNSSSMEKGEKFETIPLAEDPGRENQISAYTQTLQDRIFDIISTNIFILENIGLLLTFDNNNNIQIRRVKGLKKGTAQSNILDESTQMLDAHDNSLIKSPVFQKLKDEYELIKSVANGSEKDTQQSIFLGNITQLYDNKLYEVAVIRRFKDIETLAKKLTKENKIKRTLLERFQREKVTLRNFQIGDLALFLPTRENVNSVGSMSSSTSSLSSSFSSVDLSTPPPLDAMSIQSSPSVIHSNVINQASISGRDKNKLMRPWAAFTAFEESTRYFLKDEKGLTKGKEWFVGRIVTLEHFVADSPSNNPFRLPKGSVWFQVTAVVVSYQGV", "values": [
      {"measurement": "binding", "setting": "Atg9-PA (S. cerevisiae)", "result": "binds"}
    ]},
    {"binder": "AD-atg11ΔCC2 (protein, UniProt Q12527) MADADEYSTAPTQQEITPLQTTATIINAISGECITTNVDFFVSLDKFKQFIARKWKIPPDQLLILLPYGNKLKPSMFKELLINRSFTLNDFYVYDRRLFSLVSKPTPTNLLTSKDSNPMNSPNSNDLTETLEYLIKNSHISQYQGSDTIMIKPMPSPLEDADVDLSRLNYHSVTSLLTTNLGWLSALEIDVHYFKSLIPDIIAHIKRIFDGLTVCSQYLKLYCFDVESLYNSNVQFLNQLVDNGMTSKWEKCFNDTLSKLTALEGDSLQKFINIESLLENEKSVKILNHSINGKLNKIKREIDENASFRDIITVNIDRLRQMFTPNESKFELEDQMAESFEVLVSEMRTRSRNVLDKEEEEFNSQEFLKSMNVMLEKDKKESVKTLFTISQALYSQIGELIDLKKSLQKHAVAILGNIAFTQMEILGIKRLLLNECNKDLELYKKYEVEFAQVEDLPLIYGLYLIEKYRRLSWFQQILSFISNFNQDLELFKQNELRTRNKWVKNFGSIATVFCEDLLSSSDFKRLNEYHSHTSPPIIDLLSKTLFETKRFHIIYSNFKNNNNNSSNGNSISPEGSIALKSDDVVKGYKTRIKKLESLLHEFQYSDIGHWPQGVLNTHLKPFRGSATSINKKKFLGASVLLEPANISEVNIDSVSQANNHQIQELESNVDDLLHQLQLLKEENNRKSMQISEMGKKISDLEVEKTAYRETLTNLNQELARLTNEEQSHRTEIFTLNASFKKQLNDIISQDNEKIEKLTGDYDDVSKSRERLQMDLDESNKKHEQEVNLLKADIERLGKQIVTSEKSYAETNSSSMEKGEKFETIPLAEDPGRENQISAYTQTLQDRIFDIISTNIFILENIGLLLTFDNNNNIQIRRVKGLKKGTAQSNILDESTQMLDAHDNSLIKSPVFQKLKDEYELIKSVANGSEKDTQQSIFLGNITQLYDNKLYEVAVIRRFKDIETLAKKLTKENKIKRTLLERFQREKVTLRNFQIGDLALFLPTRENVNSVGSMSSSTSSLSSSFSSVDLSTPPPLDAMSIQSSPSVIHSNVINQASISGRDKNKLMRPWAAFTAFEESTRYFLKDEKGLTKGKEWFVGRIVTLEHFVADSPSNNPFRLPKGSVWFQVTAVVVSYQGV", "values": [
      {"measurement": "binding", "setting": "BD-Atg9 (S. cerevisiae)", "result": "no binding"}
    ]}
  ]
}
